Source: PubChem BioAssay AID1508642 (National Center for Advancing Translational Sciences (NCATS), 2021)
The whole screen tested about 43,000 compounds, of which about 200 (0.47%) were called active. Roughly 12% stayed inconclusive and do not appear here. The call rests on the fitted dose curve; in most records, active means well fitted cell-killing curve with a large enough effect; inconclusive means small, poorly fitted or top-dose-only effect, or effect the other way; inactive means flat fitted curve, though single readings scatter. This is one part of the list.

Test: Cell viability qHTS assay in S16 Pmp22-F2sN cells; further: nearly all actives have a fitted effect of over 65% in size
Conditions: S16 Pmp22-F2sN Schwann cells viability, CellTiter-Glo, 24 h; series mostly up to 57.5 µM; activity change, negative = cytotoxicity: at the top concentration
Outline: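 S16 Pmp22-F2sN Schwann cells (500-1,000/well) in phenol-red-free DMEM with 10% FBS received 23 nL compound by pin tool for 24 h at 37 °C. Viability was then read as CellTiter-Glo luminescence after 15 min at room temperature.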
On the % scale 0 is the no-effect control and ±100 the full control effect.

SMILES	activity change, negative = cytotoxicity
Cc1nn(-c2ccccc2)c(OC(=O)c2ccccc2Cl)c1S(=O)(=O)c1ccccc1	inactive: 21.3%
CCOC(=O)c1[nH]c(C)c(CCC(=O)Nc2cccc(C(F)(F)F)c2)c1C	inactive: 0.299%
COc1cc(CNCCSc2nnnn2C)ccc1OCc1ccc(F)cc1	inactive: -12.5%
CC(CNC(=O)c1nnc(Cc2cccc(F)c2)o1)c1ccccc1 (stereo unspecified)	inactive: 1.92%
COCCNC(=O)Cn1cnc2sc(C)c(S(=O)(=O)N3CCN(c4ccccc4OC)CC3)c2c1=O	inactive: 6.55%
Cc1ccc(CCNC(=O)c2ccc3c(c2)N(Cc2ccccc2F)C(=O)c2ccccc2S3=O)cc1 (stereo unspecified)	inactive: -0.6%
CCOC(=O)c1cc(-c2ccccc2)n(CC(=O)Nc2ccccc2OCC)c1C	inactive: 9.27%
Cc1cccc(C)c1NC(=O)CCCn1c(=O)c2cccn2c2ccccc21	inactive: -2.64%
COc1ccc(-c2nc(CCNC(=O)c3ccccc3)cs2)cc1OC	inactive: -11.7%
CCOC(=O)c1c(S(=O)(=O)NCC(=O)Nc2ccc(C(C)=O)cc2)c(C)n(C)c1C	inactive: 5.21%
Fc1ccc(-c2csc(=Nc3cccc(C(F)(F)F)c3)n2Cc2ccc3c(c2)OCO3)cc1	inactive: -2.11%
CC(=O)N1CCCC1c1nc2ccccc2n1Cc1ccc(F)cc1 (stereo unspecified)	inactive: -3.3%
COc1cc(NC(=O)CN2C(=O)COc3ccc(S(=O)(=O)NC4CCCC4)cc32)cc(OC)c1	inactive: -7.17%
Cc1ccc(Cl)cc1-n1ncc2c(Nc3ccc4c(c3)OCCO4)ncnc21	inactive: 12.7%
O=C(c1ccc2c(c1)N(Cc1c(F)cccc1Cl)C(=O)c1ccccc1S2)N1CCCC1	inactive: 10.3%
CCCn1c2ccccc2c2cnn(CC(=O)NCCCN(CC)c3ccccc3)c(=O)c21	inactive: 1.19%
COc1cc(NS(=O)(=O)c2c(C(=O)N3CCCCC3)c(C)n(C)c2C)cc(OC)c1OC	inactive: -6.99%
CCC(C)c1ccccc1OCC(=O)Nc1ccc(S(=O)(=O)Nc2cc(C)on2)cc1 (stereo unspecified)	inactive: 15.7%
CC1CCc2c(sc3nnn(CC(=O)Nc4c(C(C)C)cccc4C(C)C)c(=O)c23)C1 (stereo unspecified)	inactive: 2.63%
O=C(Nc1cccc2cccnc12)c1ccc(-c2cccc(Cl)c2)o1	inactive: 1.88%
COc1ccc(-c2cc3ncc(C(=O)c4cc([N+](=O)[O-])ccc4O)cn3n2)cc1	inactive: -9.31%

SMILES	activity change, negative = cytotoxicity
CC(=O)c1ccc(NC(=O)c2cc3sccc3n2Cc2ccc(Cl)cc2)cc1	inactive: 14.1%
CCOCCCNC(=O)C(=O)Nc1c2c(nn1-c1ccccc1)CSC2	inactive: -14.8%
O=C(COc1ccc(Cl)cc1)NCC(c1ccco1)S(=O)(=O)c1ccc(F)cc1 (stereo unspecified)	inactive: -19.2%
CCN(CC)S(=O)(=O)c1ccc(C(=O)NC2CC(=O)N(c3ccc(OC)c(OC)c3)C2)cc1 (stereo unspecified)	inactive: 1.15%
O=C(c1ccccc1Cl)N1CCC(c2nc3ccccc3s2)CC1	inactive: -1.33%
Cc1cccc(NC(=O)C2CCCN(S(=O)(=O)c3ccc4c(c3)CCCC(=O)N4)C2)c1 (stereo unspecified)	inactive: 15.1%
COCCCn1c(SCC(=O)Nc2ccc(F)cc2)nc2c(sc3ccccc32)c1=O	inactive: 5.13%
COc1ccc(CNC(=O)c2cc3cccc4c3n2CC(C)S4)cc1OC (stereo unspecified)	inactive: 4.27%
COCCCn1c(=O)c2sccc2n2c(CCCC(=O)Nc3cccc(OC)c3)nnc12	inactive: 1.84%
Cc1ccc(CNS(=O)(=O)c2ccc3[nH]c4c(c3c2)CCCCC4)cc1	inactive: 0.12%
CCOC(=O)N1CCN(S(=O)(=O)N2CCCC(C(=O)NCc3cc(Br)ccc3OC)C2)CC1 (stereo unspecified)	inactive: -12.7%
Cc1cc(=O)c2cc(C(=O)Nc3ccc(F)cc3)ccc2[nH]1	inactive: 9.75%
CCN1CCc2nc3sc(C(=O)Nc4ccccc4OC(F)(F)F)c(N)c3cc2C1	inactive: -7.74%
COc1cccc(Nc2nc3c(S(=O)(=O)c4cc(C)ccc4C)nnn3c3ccsc23)c1	inactive: 18.3%
O=C(CN1c2ccc(Br)cc2-c2ccccc2S1(=O)=O)N1CCCCC1	inactive: 3.33%
CC(=O)Nc1c(C)nn(-c2ccccc2)c1N1CCC(C(=O)Nc2ccccc2C(F)(F)F)CC1	inactive: 16.8%
COc1ccc(C)cc1-n1nnc(S(=O)(=O)c2ccc(C)cc2)c1C	inactive: 9.81%
O=C(Cn1c(-c2cccs2)cc2cc(F)ccc21)N1CCN(c2ccccc2)CC1	inactive: -3.74%
COc1ccc(CNc2oc(/C=C/c3cc(OC)c(OC)c(OC)c3)nc2C#N)cc1	inactive: -25.3%
CCOc1ccc(Nc2oc(/C=C/c3ccc(OC)c(OC)c3)nc2C#N)cc1	inactive: -14.3%
Cc1cccn2c(=O)c(C(=O)NC(C)c3ccccc3)c(O)nc12 (stereo unspecified)	inactive: -15.7%

SMILES	activity change, negative = cytotoxicity
COc1ccc(NC(=O)C(NS(=O)(=O)c2cccc3nsnc23)C(C)C)cc1OC (stereo unspecified)	inactive: -1.88%
COc1ccc(-c2nc(S(=O)(=O)c3ccccc3)c(N3CCC(C)CC3)o2)cc1	inactive: -1.84%
CN1C(=O)c2ccccc2Sc2ccc(NC(=O)N3CCN(c4ccc(F)cc4)CC3)cc21	inactive: -27.9%
COc1ccc(C(=O)NCCc2csc(-c3ccc(Cl)cc3)n2)c(OC)c1	inactive: 4.31%
CSc1ccc(CCNC(=O)CN2C(=O)COc3ccc(S(=O)(=O)N4CCCCCC4)cc32)cc1	inactive: 2.73%
Cc1ccc(Cl)cc1-n1c(SCC(=O)NCc2ccccc2)nc2n[nH]c(C)c2c1=N	inactive: -12.2%
COc1ccc(CCNC(=O)CN(c2ccccc2)S(=O)(=O)N(C)C)cc1	inactive: 0.332%
COc1ccccc1-c1nn(CCC(=O)Nc2ccccc2)c2nc(C)cc(C)c12	inactive: 7.47%
Cc1ccc2nc(-c3ccc(C)s3)c(Nc3ccc4c(c3)OCCO4)n2c1	inactive: 17%
O=C(Nc1ccc(F)c(F)c1)C(c1ccccc1)N1Cc2ccccc2C1=O (stereo unspecified)	inactive: 2.17%
COc1ccccc1C(=O)Nc1ccc(-c2cc(C(F)(F)F)nn2-c2ccccc2)cc1	inactive: -14.5%
CCOc1ccccc1NC(=O)Cn1c(=O)n(CCCC(=O)NCc2ccc(C)cc2)c(=O)c2ccccc21	inactive: 26.2%
Cc1ccc(C(=O)N2CCN(CCc3ccncc3)CC2)cc1	inactive: 11.7%
Cc1nn(C(C)C(=O)NCc2ccco2)c(=O)c2nn(-c3ccccc3)c(C)c12 (stereo unspecified)	inactive: -2.85%
COc1ccccc1OCC(=O)NCCS(=O)(=O)N1CCN(c2ccccc2OC)CC1	inactive: -0.203%
Cc1cccc2sc(N(Cc3cccnc3)C(=O)c3ccco3)nc12	inactive: -2.65%
CCC(C(=O)NCCC(C)C)N(C(=O)Cn1nnc(-c2ccc(C)cc2)n1)c1cccc(O)c1 (stereo unspecified)	inactive: -28%
COc1ccc(Cl)cc1NC(=O)Cn1c(=O)n(Cc2ccc(F)cc2)c(=O)c2cccnc21	inactive: 15.5%
Cc1ccccc1OCCSc1nnc(-c2cccs2)o1	inactive: 2.98%
